# In the supplement of paper PMC12355420:
# Where a name gives a salt, the structure may show the parent alone. The list shows a part of the results. No stated cut-off is given here; in the data, active = 0.5 or less and inactive = the rest. Repeats are few or missing, and single values can be far off.
# Tests used:
# Settings in all cases: 50 µM; 24 h
# [1] = tested on: HeLa VPS33A reporter cells; experiment: relative cell viability (CellMask signal) vs DMSO (fraction of DMSO); higher = less cytotoxic;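 further: primary screen of an FDA-approved drug library in HeLa reporter cells in 96-well format, CellMask signal normalized to DMSO-treated wells set as 1, under 0.5 deemed highly cytotoxic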
# [2] = tested on: HeLa VPS33A R498W KI + HA-SDC1-FLAG; experiment: relative GAG core protein HA-SDC1 amount per cell number vs DMSO (fraction of DMSO); higher = more SDC1 (GAG core protein);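 further: HA-SDC1 level read out by In-Cell Western staining with an anti-HA antibody against the N-terminal tag, screening FDA-approved library drugs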
# [3] = tested on: HeLa VPS33A KO + NLuc-VPS33A R498W; experiment: relative mutant VPS33A R498W amount (NanoLuc luminescence) vs DMSO (fraction of DMSO); HeLa model of a glycosaminoglycan (GAG) storage disease; KI is knock-in and KO knock-out; SDC1 is syndecan 1; higher = higher mutant VPS33A level;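 further: screen of an FDA-approved drug library, NanoLuc luminescence read after lysing the treated cells, taken as a measure of mutant VPS33A protein stability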
Compound,relative cell viability [1],relative GAG core protein HA-SDC1 amount per cell number [2],relative mutant VPS33A R498W amount [3]
CCOc1nc2cccc(C(=O)OCc3oc(=O)oc3C)c2n1Cc1ccc(-c2ccccc2-c2noc(=O)[nH]2)cc1 [Azilsartan Medoxomil],1.05,inactive: 0.828,1.2
Nc1ccn([C@H]2CC[C@@H](CO)O2)c(=O)n1 [Zalcitabine],1.05,inactive: 0.868,1.37
NCCCNCCCCNCCCN [Spermine],0.976,inactive: 1.08,1.44
COC(=O)N/N=C/c1c[n+]([O-])c2ccccc2[n+]1[O-] [Carbadox],1.36,inactive: 1.2,0.762
CC(=O)CC(c1ccccc1)c1c(O)c2ccccc2oc1=O (stereo not given) [Warfarin],1.01,inactive: 0.832,1.31
CN(C)CCN(Cc1ccccc1)c1ccccn1 [Tripelennamine HCl],1.19,inactive: 1.75,0.957
CC[C@@H]1C(=O)OC[C@@H]1Cc1cncn1C [Pilocarpine HCl],0.902,inactive: 0.992,0.895
N=c1nc(N2CCCCC2)cc(N)n1O [Minoxidil],1.19,inactive: 0.988,1.02
CCCc1nc(C(C)(C)O)c(C(=O)O)n1Cc1ccc(-c2ccccc2-c2nnn[nH]2)cc1 [Olmesartan],1.09,inactive: 2.17,1.47
O=C1CCc2ccc(OCCCCN3CCN(c4cccc(Cl)c4Cl)CC3)cc2N1 [Aripiprazole],1.03,inactive: 0.693,0.567
CCCc1nc(C)c2c(=O)nc(-c3cc(S(=O)(=O)N4CCN(CC)CC4)ccc3OCC)[nH]n12 [Vardenafil HCl Trihydrate],0.793,inactive: 0.895,0.532
OCCOCCN1CCN(C2=Nc3ccccc3Sc3ccccc32)CC1 [Quetiapine],0.999,inactive: 1.07,0.571
COc1cc2nccc(Oc3ccc(NC(=O)C4(C(=O)Nc5ccc(F)cc5)CC4)cc3)c2cc1OC [Cabozantinib malate (XL184)],1.27,inactive: 0.645,0.341
COc1cc(N)c(Cl)cc1C(=O)NC1CCN(CCCOc2ccc(F)cc2)CC1OC (stereo not given) [Cisapride],1.38,inactive: 1.12,0.91
Cc1cccc(C)c1NC(=O)C1CCCCN1C (stereo not given) [Mepivacaine HCl],0.947,inactive: 1.06,0.934
CCOC(=O)[C@H](CCc1ccccc1)N[C@H]1CCc2ccccc2N(CC(=O)O)C1=O [Benazepril HCl],1.01,inactive: 0.959,1.33
CC(C)(S)[C@@H](N)C(=O)O [Penicillamine],1.1,inactive: 0.963,1.1
CN1CCc2nc(C(=O)N[C@@H]3C[C@@H](C(=O)N(C)C)CC[C@@H]3NC(=O)C(=O)Nc3ccc(Cl)cn3)sc2C1 [Edoxaban tosylate monohydrate],1.22,inactive: 0.801,1.37
O=C(O)c1cccnc1Nc1cccc(C(F)(F)F)c1 [Niflumic acid],1.34,inactive: 0.911,1.59
CCCCCCNC(=O)n1cc(F)c(=O)[nH]c1=O [Carmofur],1.31,inactive: 0.83,0.827
CC(C)OC(=O)OCOP(=O)(CO[C@H](C)Cn1cnc2c(N)ncnc21)OCOC(=O)OC(C)C [Tenofovir Disoproxil Fumarate],1.04,inactive: 1.31,1.56
CN1CCCCC1CCN1c2ccccc2Sc2ccc([S+](C)[O-])cc21 (stereo not given) [Mesoridazine Besylate],1.32,inactive: 0.748,0.647
CCC[C@@H]1C[C@@H](C(=O)N[C@@H]([C@H]2O[C@H](SC)[C@H](O)[C@@H](O)[C@H]2O)[C@H](C)Cl)N(C)C1 [Clindamycin HCl],1.09,inactive: 0.764,1.24

Compound,relative cell viability [1],relative GAG core protein HA-SDC1 amount per cell number [2],relative mutant VPS33A R498W amount [3]
NC(CO)C(=O)NNCc1ccc(O)c(O)c1O (stereo not given) [Benserazide HCl],1.3,inactive: 0.606,1.42
C[C@@H](c1ncncc1F)[C@](O)(Cn1cncn1)c1ccc(F)cc1F [Voriconazole],1.01,inactive: 1.38,1.3
C[N+](C)(C)CC(=O)O [Betaine hydrochloride],1.08,inactive: 1.16,1.11
COc1ccccc1Oc1c(NS(=O)(=O)c2ccc(C(C)(C)C)cc2)nc(-c2ncccn2)nc1OCCO [Bosentan Hydrate],1.29,inactive: 0.952,1.19
CSCC[C@H](N)C(=O)O [L-Methionine],0.969,inactive: 0.777,0.793
CCN(CC)C(=O)/C(C#N)=C/c1cc(O)c(O)c([N+](=O)[O-])c1 [Entacapone],0.941,active: 0.471,2.54
CC1COc2c(N3CCN(C)CC3)c(F)cc3c(=O)c(C(=O)O)cn1c23 (stereo not given) [Ofloxacin],0.977,inactive: 1.28,1.26
O=C1O[C@H](CO)[C@@H](O)[C@H](O)[C@H]1O [delta-Gluconolactone],1.06,inactive: 0.86,1.37
Cn1cc(C2=C(c3cccc(N)c3)C(=O)NC2=O)c2ccccc21,1.23,inactive: 0.736,1.24
CC(C)(C)NC(=O)[C@H]1CC[C@H]2[C@@H]3CC[C@H]4NC(=O)C=C[C@]4(C)[C@H]3CC[C@]12C [Finasteride],1.03,inactive: 1.03,0.859
Cc1c(Cl)cccc1Nc1ccccc1C(=O)O [Tolfenamic Acid],1.24,inactive: 0.856,0.873
C=CC(=O)Nc1cccc(Nc2nc(Nc3ccc(N4CCN(C(C)=O)CC4)cc3OC)ncc2C(F)(F)F)c1,1.02,inactive: 0.542,0.356
C[C@@H](O)[C@H]1C(=O)N2C(C(=O)O)=C(S[C@@H]3CN[C@H](C(=O)N(C)C)C3)[C@H](C)[C@H]12 [Meropenem trihydrate],1.42,inactive: 1.35,0.795
Brc1c(NC2=NCCN2)ccc2nccnc12,0.945,inactive: 0.91,1.35
C/C(=C\CO)CCC[C@H](C)CCC[C@H](C)CCCC(C)C [Phytol],1.01,inactive: 0.814,1.29
c1ccc2c(c1)CCCC2C1=NCCN1 (stereo not given) [Tetrahydrozoline HCl],1.15,inactive: 0.979,1.15
C[N+](C)(C)CC(O)CC(=O)[O-] (racemic) [DL-Carnitine HCl],1.29,inactive: 0.629,0.983
COC(=O)C1=CO[C@@H](O[C@@H]2O[C@H](CO)[C@@H](O)[C@H](O)[C@H]2O)[C@@H]2[C@@H](C)[C@@H](O)C[C@H]12 [Loganin],1.01,inactive: 0.856,1.33
COc1ccc(C(=O)CC(=O)c2ccc(C(C)(C)C)cc2)cc1 [Avobenzone],1.03,inactive: 0.669,1.04
C[C@H]1[C@H](C)CC[C@]2(C(=O)O)CC[C@]3(C)C(=CC[C@@H]4[C@@]5(C)C[C@@H](O)[C@H](O)[C@@](C)(CO)[C@@H]5[C@H](O)C[C@]43C)[C@H]12 [Madecassic acid],1.06,inactive: 0.572,1.4
COc1ccc(Cl)cc1C(=O)NCCc1ccc(S(=O)(=O)NC(=O)NC2CCCCC2)cc1 [Glibenclamide],1.2,inactive: 0.621,0.549
O=C1[C@@H]2[C@H]3CC[C@H](C3)[C@@H]2C(=O)N1CCCCN1CCN(c2ncccn2)CC1 [Tandospirone],1.18,inactive: 1.25,0.884
